# Test results reported in publication PMC8027439.
# Chains of the proteins cited; added tags and fusions are not shown.
# UniProt Q13263: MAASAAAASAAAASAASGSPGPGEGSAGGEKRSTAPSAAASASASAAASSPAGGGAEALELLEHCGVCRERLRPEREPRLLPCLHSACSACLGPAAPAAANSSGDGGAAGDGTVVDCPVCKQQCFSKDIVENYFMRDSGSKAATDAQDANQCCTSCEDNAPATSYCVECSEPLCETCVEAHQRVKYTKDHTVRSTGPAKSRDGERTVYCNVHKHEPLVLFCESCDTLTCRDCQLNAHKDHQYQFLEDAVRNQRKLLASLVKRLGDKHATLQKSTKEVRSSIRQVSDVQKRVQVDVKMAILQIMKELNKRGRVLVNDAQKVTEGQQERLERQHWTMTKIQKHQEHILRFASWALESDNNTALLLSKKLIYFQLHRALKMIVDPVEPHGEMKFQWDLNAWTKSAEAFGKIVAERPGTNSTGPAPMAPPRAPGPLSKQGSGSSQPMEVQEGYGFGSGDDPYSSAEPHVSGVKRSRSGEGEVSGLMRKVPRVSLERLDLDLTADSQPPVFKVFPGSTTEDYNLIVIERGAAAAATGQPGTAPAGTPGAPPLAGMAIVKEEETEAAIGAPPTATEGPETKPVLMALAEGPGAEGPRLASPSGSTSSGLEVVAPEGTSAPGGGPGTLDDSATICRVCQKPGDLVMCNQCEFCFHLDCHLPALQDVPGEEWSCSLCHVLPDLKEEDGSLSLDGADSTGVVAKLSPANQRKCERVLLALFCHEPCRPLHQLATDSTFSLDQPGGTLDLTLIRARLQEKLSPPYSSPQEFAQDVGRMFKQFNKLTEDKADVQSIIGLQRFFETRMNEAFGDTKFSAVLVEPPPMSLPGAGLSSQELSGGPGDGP
# UniProt Q14739: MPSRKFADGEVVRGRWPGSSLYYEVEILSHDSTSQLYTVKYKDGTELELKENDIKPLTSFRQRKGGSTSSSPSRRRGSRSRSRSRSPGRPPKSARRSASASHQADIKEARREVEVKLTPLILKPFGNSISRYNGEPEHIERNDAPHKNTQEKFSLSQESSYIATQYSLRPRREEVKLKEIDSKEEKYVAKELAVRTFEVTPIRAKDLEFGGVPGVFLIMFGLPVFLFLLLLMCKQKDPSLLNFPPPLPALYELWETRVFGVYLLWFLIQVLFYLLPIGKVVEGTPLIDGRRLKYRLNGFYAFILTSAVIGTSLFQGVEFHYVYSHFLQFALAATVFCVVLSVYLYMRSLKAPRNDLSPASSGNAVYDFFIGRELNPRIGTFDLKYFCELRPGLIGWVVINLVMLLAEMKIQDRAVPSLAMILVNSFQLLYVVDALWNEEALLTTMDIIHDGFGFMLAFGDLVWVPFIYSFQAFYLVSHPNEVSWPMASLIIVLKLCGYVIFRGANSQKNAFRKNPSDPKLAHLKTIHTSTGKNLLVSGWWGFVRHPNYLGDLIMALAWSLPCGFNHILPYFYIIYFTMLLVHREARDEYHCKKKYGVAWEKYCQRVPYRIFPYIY
# UniProt P20700: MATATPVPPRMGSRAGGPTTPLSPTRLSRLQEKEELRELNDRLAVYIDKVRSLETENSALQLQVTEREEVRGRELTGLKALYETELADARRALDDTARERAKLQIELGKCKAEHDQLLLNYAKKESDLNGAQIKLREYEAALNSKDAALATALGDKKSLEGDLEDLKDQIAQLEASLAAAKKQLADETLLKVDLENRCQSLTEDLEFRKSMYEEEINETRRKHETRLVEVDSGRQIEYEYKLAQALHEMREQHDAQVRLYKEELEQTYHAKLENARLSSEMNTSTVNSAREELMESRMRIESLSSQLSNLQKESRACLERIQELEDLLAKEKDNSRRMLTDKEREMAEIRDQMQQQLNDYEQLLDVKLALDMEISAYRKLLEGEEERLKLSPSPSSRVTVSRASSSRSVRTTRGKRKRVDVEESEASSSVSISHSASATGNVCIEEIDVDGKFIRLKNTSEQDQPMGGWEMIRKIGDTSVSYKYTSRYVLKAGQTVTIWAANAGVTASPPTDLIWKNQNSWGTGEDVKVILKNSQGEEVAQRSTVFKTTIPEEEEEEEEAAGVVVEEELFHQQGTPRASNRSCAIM
# Results are given in words; binding and its absence hold for the method and conditions named. In cells and extracts the contact can be indirect. Some entries that bind do so weakly or less than the wild type. For some assays here: Where a sequence is shown, tags or fusion partners need not be part of it.
# T1: CLOCK Δ51 (lacks a.a. 514–564), transcriptionally inactive mutant (human) (UniProt O15516)
# T1 sequence: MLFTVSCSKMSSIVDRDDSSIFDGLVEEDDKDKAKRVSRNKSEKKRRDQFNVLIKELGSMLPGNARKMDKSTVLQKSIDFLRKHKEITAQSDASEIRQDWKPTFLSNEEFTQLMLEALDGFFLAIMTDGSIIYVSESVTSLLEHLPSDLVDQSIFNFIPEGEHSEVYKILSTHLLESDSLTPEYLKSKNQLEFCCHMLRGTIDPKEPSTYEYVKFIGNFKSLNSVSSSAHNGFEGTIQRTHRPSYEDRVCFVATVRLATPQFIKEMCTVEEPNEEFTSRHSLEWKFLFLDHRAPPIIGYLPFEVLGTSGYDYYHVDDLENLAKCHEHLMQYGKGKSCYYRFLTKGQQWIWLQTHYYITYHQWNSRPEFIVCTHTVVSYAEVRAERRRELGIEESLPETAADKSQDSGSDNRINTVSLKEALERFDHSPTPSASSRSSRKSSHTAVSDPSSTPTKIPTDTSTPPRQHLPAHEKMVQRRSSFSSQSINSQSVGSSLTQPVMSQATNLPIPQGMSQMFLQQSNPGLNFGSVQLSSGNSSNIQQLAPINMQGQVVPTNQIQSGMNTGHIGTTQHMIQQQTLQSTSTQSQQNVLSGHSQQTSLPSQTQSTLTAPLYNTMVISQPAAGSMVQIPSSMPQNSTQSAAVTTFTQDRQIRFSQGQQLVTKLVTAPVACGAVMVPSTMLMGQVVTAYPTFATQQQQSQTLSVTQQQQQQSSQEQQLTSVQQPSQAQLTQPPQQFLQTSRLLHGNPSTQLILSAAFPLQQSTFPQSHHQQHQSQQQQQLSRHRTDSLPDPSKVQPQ
# T2: Flag-tagged CLOCK truncation mutant a.a. 1–379 (human) (UniProt O15516)
# T2 sequence: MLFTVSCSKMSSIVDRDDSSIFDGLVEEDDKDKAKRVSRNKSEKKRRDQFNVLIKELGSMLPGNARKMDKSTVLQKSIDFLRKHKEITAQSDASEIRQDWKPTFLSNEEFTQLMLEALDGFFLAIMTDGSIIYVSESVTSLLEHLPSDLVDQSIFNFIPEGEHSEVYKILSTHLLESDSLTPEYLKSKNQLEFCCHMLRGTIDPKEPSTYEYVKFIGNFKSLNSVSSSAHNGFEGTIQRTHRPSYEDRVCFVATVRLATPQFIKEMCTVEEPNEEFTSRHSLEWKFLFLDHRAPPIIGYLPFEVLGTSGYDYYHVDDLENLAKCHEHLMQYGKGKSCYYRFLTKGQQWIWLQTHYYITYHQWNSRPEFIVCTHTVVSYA
# T3: Flag-tagged CLOCK truncation mutant a.a. 1–651 (human) (UniProt O15516)
# T3 sequence: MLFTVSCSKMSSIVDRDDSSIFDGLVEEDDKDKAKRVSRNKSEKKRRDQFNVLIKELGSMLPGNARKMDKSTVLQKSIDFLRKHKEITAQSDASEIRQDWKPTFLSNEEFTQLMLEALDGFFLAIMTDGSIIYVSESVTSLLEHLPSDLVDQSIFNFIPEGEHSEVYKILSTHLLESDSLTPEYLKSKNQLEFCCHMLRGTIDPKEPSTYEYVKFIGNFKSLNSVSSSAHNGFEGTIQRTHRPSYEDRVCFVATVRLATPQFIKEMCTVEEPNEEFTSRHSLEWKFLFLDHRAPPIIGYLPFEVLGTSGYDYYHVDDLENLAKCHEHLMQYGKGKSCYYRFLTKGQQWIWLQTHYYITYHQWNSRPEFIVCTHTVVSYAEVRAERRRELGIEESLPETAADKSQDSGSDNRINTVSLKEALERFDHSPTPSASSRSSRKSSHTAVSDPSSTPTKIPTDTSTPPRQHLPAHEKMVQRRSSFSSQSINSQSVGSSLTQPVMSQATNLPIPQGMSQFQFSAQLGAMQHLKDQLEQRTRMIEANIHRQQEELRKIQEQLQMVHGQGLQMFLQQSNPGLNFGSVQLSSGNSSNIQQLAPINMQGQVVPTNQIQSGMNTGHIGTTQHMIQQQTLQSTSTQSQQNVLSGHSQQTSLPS
# T4: Flag-tagged CLOCK truncation mutant a.a. 380–651 (human) (UniProt O15516)
# T4 sequence: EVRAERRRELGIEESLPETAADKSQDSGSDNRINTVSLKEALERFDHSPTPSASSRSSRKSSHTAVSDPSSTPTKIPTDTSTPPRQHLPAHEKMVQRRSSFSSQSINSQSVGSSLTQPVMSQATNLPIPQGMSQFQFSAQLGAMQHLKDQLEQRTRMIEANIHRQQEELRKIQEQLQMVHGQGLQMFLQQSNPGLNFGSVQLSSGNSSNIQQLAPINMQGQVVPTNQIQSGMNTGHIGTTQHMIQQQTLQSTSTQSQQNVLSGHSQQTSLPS
# T5: Flag-tagged CLOCK (full-length, wild type) (human) (UniProt O15516)
# T5 sequence: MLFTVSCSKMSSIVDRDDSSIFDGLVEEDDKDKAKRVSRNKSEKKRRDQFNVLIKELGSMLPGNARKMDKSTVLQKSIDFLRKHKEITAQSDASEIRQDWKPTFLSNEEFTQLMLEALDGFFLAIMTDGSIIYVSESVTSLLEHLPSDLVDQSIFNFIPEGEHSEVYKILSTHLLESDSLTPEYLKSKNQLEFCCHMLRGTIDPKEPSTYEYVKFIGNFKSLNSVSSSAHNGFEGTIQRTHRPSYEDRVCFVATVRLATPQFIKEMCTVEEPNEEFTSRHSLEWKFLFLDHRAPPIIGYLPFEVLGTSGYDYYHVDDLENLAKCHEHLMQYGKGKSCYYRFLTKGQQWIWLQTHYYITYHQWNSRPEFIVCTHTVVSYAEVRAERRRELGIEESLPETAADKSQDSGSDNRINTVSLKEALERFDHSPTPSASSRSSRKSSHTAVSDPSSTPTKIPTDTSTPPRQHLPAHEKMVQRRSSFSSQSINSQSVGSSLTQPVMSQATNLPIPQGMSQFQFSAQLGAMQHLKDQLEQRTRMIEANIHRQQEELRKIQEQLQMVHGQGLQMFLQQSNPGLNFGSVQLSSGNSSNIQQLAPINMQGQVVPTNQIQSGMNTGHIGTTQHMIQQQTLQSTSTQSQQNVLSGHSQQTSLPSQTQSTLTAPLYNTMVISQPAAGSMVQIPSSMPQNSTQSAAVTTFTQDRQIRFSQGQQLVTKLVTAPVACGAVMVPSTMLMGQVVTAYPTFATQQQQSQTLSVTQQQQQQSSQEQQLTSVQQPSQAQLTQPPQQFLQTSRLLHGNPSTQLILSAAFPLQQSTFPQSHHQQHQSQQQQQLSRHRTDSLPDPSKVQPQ
# T6: Flag-tagged CLOCK truncation mutant a.a. 380–846 (human) (UniProt O15516)
# T6 sequence: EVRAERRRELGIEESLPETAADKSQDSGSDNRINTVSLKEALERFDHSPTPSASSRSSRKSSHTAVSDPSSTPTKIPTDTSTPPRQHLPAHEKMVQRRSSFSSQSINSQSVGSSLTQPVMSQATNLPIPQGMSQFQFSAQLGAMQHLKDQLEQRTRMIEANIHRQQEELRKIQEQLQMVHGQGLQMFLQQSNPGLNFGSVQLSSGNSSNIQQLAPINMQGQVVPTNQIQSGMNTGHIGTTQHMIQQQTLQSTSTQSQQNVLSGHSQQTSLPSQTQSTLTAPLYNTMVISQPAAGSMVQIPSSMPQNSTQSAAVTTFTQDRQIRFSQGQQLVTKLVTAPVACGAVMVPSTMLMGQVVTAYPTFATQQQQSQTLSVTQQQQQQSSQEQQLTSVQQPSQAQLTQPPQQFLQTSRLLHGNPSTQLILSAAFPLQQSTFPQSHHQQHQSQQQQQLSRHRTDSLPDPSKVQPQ
# T7: Flag-tagged CLOCK truncation mutant a.a. 652–846 (human) (UniProt O15516)
# T7 sequence: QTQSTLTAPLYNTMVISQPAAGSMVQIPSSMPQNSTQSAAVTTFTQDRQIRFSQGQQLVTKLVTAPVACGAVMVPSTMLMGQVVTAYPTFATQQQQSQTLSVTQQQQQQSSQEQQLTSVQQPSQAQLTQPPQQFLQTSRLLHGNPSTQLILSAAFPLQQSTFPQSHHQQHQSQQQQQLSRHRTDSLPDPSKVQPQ
# Assays:
# Test in all cases: co-IP; HEK293T cells transfected with Flag-tagged CLOCK constructs, CHAPS lysis buffer (120 mM NaCl, 0.3% CHAPS, 1 mM EDTA, 40 mM HEPES pH 7.5), anti-Flag antibody-coupled beads overnight at 4 °C, six washes, western blot of the partners
# [1] = biological target: T1, CLOCK Δ51 (lacks a.a. 514–564), transcriptionally inactive mutant (human)
# [2] = biological target: T2, Flag-tagged CLOCK truncation mutant a.a. 1–379 (human)
# [3] = biological target: T3, Flag-tagged CLOCK truncation mutant a.a. 1–651 (human)
# [4] = biological target: T4, Flag-tagged CLOCK truncation mutant a.a. 380–651 (human)
# [5] = biological target: T5, Flag-tagged CLOCK (full-length, wild type) (human)
# [6] = biological target: T6, Flag-tagged CLOCK truncation mutant a.a. 380–846 (human)
# [7] = biological target: T7, Flag-tagged CLOCK truncation mutant a.a. 652–846 (human)
binding [1],binding [2],binding [3],binding [4],binding [5],binding [6],binding [7],Molecule
binds,binds,binds,–,–,–,–,"KAP1, heterochromatin-associated protein (from UniProt Q13263 1-835)"
–,–,binds,binds,–,–,–,"LBR, nuclear lamina protein (from UniProt Q14739 1-615)"
binds,binds,binds,–,–,–,–,"Lamin B1, nuclear lamina protein (from UniProt P20700 1-586)"
–,no binding,no binding,no binding,binds,no binding,no binding,"PER3, core circadian clock factor (protein, UniProt P56645 1-1201) MPRGEAPGPGRRGAKDEALGEESGERWSPEFHLQRKLADSSHSEQQDRNRVSEELIMVVQEMKKYFPSERRNKPSTLDALNYALRCVHSVQANSEFFQILSQNGAPQADVSMYSLEELATIASEHTSKNTDTFVAVFSFLSGRLVHISEQAALILNRKKDVLASSHFVDLLAPQDMRVFYAHTARAQLPFWNNWTQRAARYECAPVKPFFCRIRGGEDRKQEKCHSPFRIIPYLIHVHHPAQPELESEPCCLTVVEKIHSGYEAPRIPVNKRIFTTTHTPGCVFLEVDEKAVPLLGYLPQDLIGTSILSYLHPEDRSLMVAIHQKVLKYAGHPPFEHSPIRFCTQNGDYIILDSSWSSFVNPWSRKISFIIGRHKVRTSPLNEDVFATKIKKMNDNDKDITELQEQIYKLLLQPVHVSVSSGYGSLGSSGSQEQLVSIASSSEASGHRVEETKAEQMTLQQVYASVNKIKNLGQQLYIESMTKSSFKPVTGTRTEPNGGGECKTFTSFHQTLKNNSVYTEPCEDLRNDEHSPSYQQINCIDSVIRYLKSYNIPALKRKCISCTNTTSSSSEEDKQNHKADDVQALQAGLQIPAIPKSEMPTNGRSIDTGGGAPQILSTAMLSLGSGISQCGYSSTIVHVPPPETARDATLFCEPWTLNMQPAPLTSEEFKHVGLTAAVLSAHTQKEEQNYVDKFREKILSSPYSSYLQQESRSKAKYSYFQGDSTSKQTRSAGCRKGKHKRKKLPEPPDSSSSNTGSGPRRGAHQNAQPCCPSAASSPHTSSPTFPPAAMVPSQAPYLVPAFPLPAATSPGREYAAPGTAPEGLHGLPLSEGLQPYPAFPFPYLDTFMTVFLPDPPVCPLLSPSFLPCPFLGATASSAISPSMSSAMSPTLDPPPSVTSQRREEEKWEAQSEGHPFITSRSSSPLQLNLLQEEMPRPSESPDQMRRNTCPQTEYCVTGNNGSESSPATTGALSTGSPPRENPSHPTASALSTGSPPMKNPSHPTASALSTGSPPMKNPSHPTASTLSMGLPPSRTPSHPTATVLSTGSPPSESPSRTGSAASGSSDSSIYLTSSVYSSKISQNGQQSQDVQKKETFPNVAEEPIWRMIRQTPERILMTYQVPERVKEVVLKEDLEKLESMRQQQPQFSHGQKEELAKVYNWIQSQTVTQEIDIQACVTCENEDSADGAATSCGQVLVEDSC"
